# Data from PMC12820563, “FoxP3 forms a head-to-head dimer in vivo and stabilizes its multimerization on adjacent microsatellites”.
# This is one part of the list.
# Target: T1, MBP-FoxP1dN (Mus musculus, UniProt P58462 326-579)
# T1 sequence: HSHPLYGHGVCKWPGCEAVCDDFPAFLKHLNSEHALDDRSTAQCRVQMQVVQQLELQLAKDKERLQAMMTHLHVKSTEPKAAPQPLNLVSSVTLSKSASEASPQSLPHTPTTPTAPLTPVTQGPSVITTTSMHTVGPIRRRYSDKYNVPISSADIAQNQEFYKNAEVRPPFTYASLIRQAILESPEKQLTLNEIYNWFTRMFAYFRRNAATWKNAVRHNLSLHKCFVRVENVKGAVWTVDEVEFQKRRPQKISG
# Assay: PD-seq (MBP pull-down with sequencing); 20 mM Tris-HCl pH 7.5, 100 mM NaCl, 1.5 mM MgCl2, 0.4 uM protein, 0.1 uM dsDNA library, 30 min, room temperature, amylose pull-down; high values mean tight binding
# Settings: protein: recombinant; tags: His6-MBP; chain copies: 2; dsDNA, one strand shown
# How it was run: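 Binding is the reads-per-million enrichment of pull-down relative to input, pooled across replicates. For this, 0.4 µM His6-MBP-tagged mouse FoxP3 or FoxP1 fragment lacking the N-terminus, made in E. coli, was incubated with 0.1 µM Klenow-filled double-stranded degenerate DNA library for 30 min at room temperature in Tris pH 7.5 buffer with NaCl and MgCl2. Complexes bound to amylose resin were washed three times before proteinase K released the DNA for PCR barcoding and Illumina sequencing.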
row,Sequence,binding signal
1,GATGATTGTTCTCCCAGCTGATGAATTTCTTCCATCGAGTAAACAAATTTTCCTAATCTTTCTGTTCAAGCGCCATCTAC,0.861 RPM ratio (pull-down/input)
2,GATGATTGTTCTCCCAGCTGATGAATTTCGATATTCGAGTAAACAAATTTTCCTAATCTTTCTGTTCAAGCGCCATCTAC,0.941 RPM ratio (pull-down/input)
3,GATGATTGTTCTCCCAGCTGATGAATTAGTGTGTTCGAGTAAACAAATTTTCCTAATCTTTCTGTTCAAGCGCCATCTAC,1.35 RPM ratio (pull-down/input)
4,GATGATTGTTCTCCCAGCTGATGAATTGAAAATCTCGAGTAAACAAATTTTCCTAATCTTTCTGTTCAAGCGCCATCTAC,0.791 RPM ratio (pull-down/input)
5,GATGATTGTTCTCCCAGCTGATGAATTTCTGCCTTCGAGTAAACAAATTTTCCTAATCTTTCTGTTCAAGCGCCATCTAC,0.937 RPM ratio (pull-down/input)
6,GATGATTGTTCTCCCAGCTGATGAATTAGACCGGTCGAGTAAACAAATTTTCCTAATCTTTCTGTTCAAGCGCCATCTAC,0.822 RPM ratio (pull-down/input)
7,GATGATTGTTCTCCCAGCTGATGAATTCCCATTATCGAGTAAACAAATTTTCCTAATCTTTCTGTTCAAGCGCCATCTAC,0.922 RPM ratio (pull-down/input)
8,GATGATTGTTCTCCCAGCTGATGAATTGAAGAAATCGAGTAAACAAATTTTCCTAATCTTTCTGTTCAAGCGCCATCTAC,1.01 RPM ratio (pull-down/input)
9,GATGATTGTTCTCCCAGCTGATGAATTTACAAACTCGAGTAAACAAATTTTCCTAATCTTTCTGTTCAAGCGCCATCTAC,1.47 RPM ratio (pull-down/input)
10,GATGATTGTTCTCCCAGCTGATGAATTCTTAAAATCGAGTAAACAAATTTTCCTAATCTTTCTGTTCAAGCGCCATCTAC,0.935 RPM ratio (pull-down/input)
11,GATGATTGTTCTCCCAGCTGATGAATTTACGCGGTCGAGTAAACAAATTTTCCTAATCTTTCTGTTCAAGCGCCATCTAC,1.04 RPM ratio (pull-down/input)
12,GATGATTGTTCTCCCAGCTGATGAATTCATCAACTCGAGTAAACAAATTTTCCTAATCTTTCTGTTCAAGCGCCATCTAC,1.03 RPM ratio (pull-down/input)
13,GATGATTGTTCTCCCAGCTGATGAATTATTTCCATCGAGTAAACAAATTTTCCTAATCTTTCTGTTCAAGCGCCATCTAC,1.12 RPM ratio (pull-down/input)
14,GATGATTGTTCTCCCAGCTGATGAATTTTCCAATTCGAGTAAACAAATTTTCCTAATCTTTCTGTTCAAGCGCCATCTAC,1.03 RPM ratio (pull-down/input)
15,GATGATTGTTCTCCCAGCTGATGAATTCTGAGGTTCGAGTAAACAAATTTTCCTAATCTTTCTGTTCAAGCGCCATCTAC,0.731 RPM ratio (pull-down/input)
16,GATGATTGTTCTCCCAGCTGATGAATTCGCGTAGTCGAGTAAACAAATTTTCCTAATCTTTCTGTTCAAGCGCCATCTAC,0.866 RPM ratio (pull-down/input)
17,GATGATTGTTCTCCCAGCTGATGAATTCGCCTAGTCGAGTAAACAAATTTTCCTAATCTTTCTGTTCAAGCGCCATCTAC,0.725 RPM ratio (pull-down/input)
18,GATGATTGTTCTCCCAGCTGATGAATTTTCGTTATCGAGTAAACAAATTTTCCTAATCTTTCTGTTCAAGCGCCATCTAC,1.07 RPM ratio (pull-down/input)
19,GATGATTGTTCTCCCAGCTGATGAATTTGTTTGTTCGAGTAAACAAATTTTCCTAATCTTTCTGTTCAAGCGCCATCTAC,2.73 RPM ratio (pull-down/input)
20,GATGATTGTTCTCCCAGCTGATGAATTGGAGTCATCGAGTAAACAAATTTTCCTAATCTTTCTGTTCAAGCGCCATCTAC,0.884 RPM ratio (pull-down/input)
21,GATGATTGTTCTCCCAGCTGATGAATTCCGACTATCGAGTAAACAAATTTTCCTAATCTTTCTGTTCAAGCGCCATCTAC,0.937 RPM ratio (pull-down/input)

row,Sequence,binding signal
1,GATGATTGTTCTCCCAGCTGATGAATTCGTTAGGTCGAGTAAACAAATTTTCCTAATCTTTCTGTTCAAGCGCCATCTAC,0.805 RPM ratio (pull-down/input)
2,GATGATTGTTCTCCCAGCTGATGAATTGAGGTTGTCGAGTAAACAAATTTTCCTAATCTTTCTGTTCAAGCGCCATCTAC,1.06 RPM ratio (pull-down/input)
3,GATGATTGTTCTCCCAGCTGATGAATTGCTTCCATCGAGTAAACAAATTTTCCTAATCTTTCTGTTCAAGCGCCATCTAC,1.13 RPM ratio (pull-down/input)
4,GATGATTGTTCTCCCAGCTGATGAATTGGCCACGTCGAGTAAACAAATTTTCCTAATCTTTCTGTTCAAGCGCCATCTAC,0.873 RPM ratio (pull-down/input)
5,GATGATTGTTCTCCCAGCTGATGAATTGTCTGTCTCGAGTAAACAAATTTTCCTAATCTTTCTGTTCAAGCGCCATCTAC,0.904 RPM ratio (pull-down/input)
6,GATGATTGTTCTCCCAGCTGATGAATTCTTTTCGTCGAGTAAACAAATTTTCCTAATCTTTCTGTTCAAGCGCCATCTAC,0.911 RPM ratio (pull-down/input)
7,GATGATTGTTCTCCCAGCTGATGAATTCCAAGTTTCGAGTAAACAAATTTTCCTAATCTTTCTGTTCAAGCGCCATCTAC,0.893 RPM ratio (pull-down/input)
8,GATGATTGTTCTCCCAGCTGATGAATTTTAAAACTCGAGTAAACAAATTTTCCTAATCTTTCTGTTCAAGCGCCATCTAC,0.961 RPM ratio (pull-down/input)
9,GATGATTGTTCTCCCAGCTGATGAATTATGCCGATCGAGTAAACAAATTTTCCTAATCTTTCTGTTCAAGCGCCATCTAC,1.02 RPM ratio (pull-down/input)
10,GATGATTGTTCTCCCAGCTGATGAATTCTAGGGATCGAGTAAACAAATTTTCCTAATCTTTCTGTTCAAGCGCCATCTAC,0.932 RPM ratio (pull-down/input)
11,GATGATTGTTCTCCCAGCTGATGAATTGTTGGTTTCGAGTAAACAAATTTTCCTAATCTTTCTGTTCAAGCGCCATCTAC,1.89 RPM ratio (pull-down/input)
12,GATGATTGTTCTCCCAGCTGATGAATTGCAGTTCTCGAGTAAACAAATTTTCCTAATCTTTCTGTTCAAGCGCCATCTAC,1.06 RPM ratio (pull-down/input)
13,GATGATTGTTCTCCCAGCTGATGAATTCCCGTGTTCGAGTAAACAAATTTTCCTAATCTTTCTGTTCAAGCGCCATCTAC,0.867 RPM ratio (pull-down/input)
14,GATGATTGTTCTCCCAGCTGATGAATTCCCATATTCGAGTAAACAAATTTTCCTAATCTTTCTGTTCAAGCGCCATCTAC,0.903 RPM ratio (pull-down/input)
15,GATGATTGTTCTCCCAGCTGATGAATTAGAAATTTCGAGTAAACAAATTTTCCTAATCTTTCTGTTCAAGCGCCATCTAC,0.918 RPM ratio (pull-down/input)
16,GATGATTGTTCTCCCAGCTGATGAATTTTCATGATCGAGTAAACAAATTTTCCTAATCTTTCTGTTCAAGCGCCATCTAC,0.966 RPM ratio (pull-down/input)
17,GATGATTGTTCTCCCAGCTGATGAATTGAATCATTCGAGTAAACAAATTTTCCTAATCTTTCTGTTCAAGCGCCATCTAC,1.04 RPM ratio (pull-down/input)
18,GATGATTGTTCTCCCAGCTGATGAATTGTTCGGGTCGAGTAAACAAATTTTCCTAATCTTTCTGTTCAAGCGCCATCTAC,0.941 RPM ratio (pull-down/input)
19,GATGATTGTTCTCCCAGCTGATGAATTGGCAGGATCGAGTAAACAAATTTTCCTAATCTTTCTGTTCAAGCGCCATCTAC,0.794 RPM ratio (pull-down/input)
20,GATGATTGTTCTCCCAGCTGATGAATTAAACATTTCGAGTAAACAAATTTTCCTAATCTTTCTGTTCAAGCGCCATCTAC,1.42 RPM ratio (pull-down/input)
21,GATGATTGTTCTCCCAGCTGATGAATTGATATAATCGAGTAAACAAATTTTCCTAATCTTTCTGTTCAAGCGCCATCTAC,1.32 RPM ratio (pull-down/input)

row,Sequence,binding signal
1,GATGATTGTTCTCCCAGCTGATGAATTTCACGGGTCGAGTAAACAAATTTTCCTAATCTTTCTGTTCAAGCGCCATCTAC,0.753 RPM ratio (pull-down/input)
2,GATGATTGTTCTCCCAGCTGATGAATTTCCGTAATCGAGTAAACAAATTTTCCTAATCTTTCTGTTCAAGCGCCATCTAC,1.25 RPM ratio (pull-down/input)
3,GATGATTGTTCTCCCAGCTGATGAATTCGGGAATTCGAGTAAACAAATTTTCCTAATCTTTCTGTTCAAGCGCCATCTAC,0.845 RPM ratio (pull-down/input)
4,GATGATTGTTCTCCCAGCTGATGAATTCGCTGCATCGAGTAAACAAATTTTCCTAATCTTTCTGTTCAAGCGCCATCTAC,1.06 RPM ratio (pull-down/input)
5,GATGATTGTTCTCCCAGCTGATGAATTATCAGTCTCGAGTAAACAAATTTTCCTAATCTTTCTGTTCAAGCGCCATCTAC,0.945 RPM ratio (pull-down/input)
6,GATGATTGTTCTCCCAGCTGATGAATTGAAGCCCTCGAGTAAACAAATTTTCCTAATCTTTCTGTTCAAGCGCCATCTAC,0.676 RPM ratio (pull-down/input)
7,GATGATTGTTCTCCCAGCTGATGAATTTAAGGATTCGAGTAAACAAATTTTCCTAATCTTTCTGTTCAAGCGCCATCTAC,0.931 RPM ratio (pull-down/input)
8,GATGATTGTTCTCCCAGCTGATGAATTTCCACTATCGAGTAAACAAATTTTCCTAATCTTTCTGTTCAAGCGCCATCTAC,0.933 RPM ratio (pull-down/input)
9,GATGATTGTTCTCCCAGCTGATGAATTTTAGGTGTCGAGTAAACAAATTTTCCTAATCTTTCTGTTCAAGCGCCATCTAC,0.902 RPM ratio (pull-down/input)
10,GATGATTGTTCTCCCAGCTGATGAATTCGAAAAATCGAGTAAACAAATTTTCCTAATCTTTCTGTTCAAGCGCCATCTAC,1.02 RPM ratio (pull-down/input)
11,GATGATTGTTCTCCCAGCTGATGAATTGGCGTCGTCGAGTAAACAAATTTTCCTAATCTTTCTGTTCAAGCGCCATCTAC,0.851 RPM ratio (pull-down/input)
12,GATGATTGTTCTCCCAGCTGATGAATTACGGCTTTCGAGTAAACAAATTTTCCTAATCTTTCTGTTCAAGCGCCATCTAC,0.992 RPM ratio (pull-down/input)
13,GATGATTGTTCTCCCAGCTGATGAATTAATTTTATCGAGTAAACAAATTTTCCTAATCTTTCTGTTCAAGCGCCATCTAC,0.907 RPM ratio (pull-down/input)
14,GATGATTGTTCTCCCAGCTGATGAATTCTTAGGTTCGAGTAAACAAATTTTCCTAATCTTTCTGTTCAAGCGCCATCTAC,0.874 RPM ratio (pull-down/input)
15,GATGATTGTTCTCCCAGCTGATGAATTCAACCTATCGAGTAAACAAATTTTCCTAATCTTTCTGTTCAAGCGCCATCTAC,0.932 RPM ratio (pull-down/input)
16,GATGATTGTTCTCCCAGCTGATGAATTTTAGATGTCGAGTAAACAAATTTTCCTAATCTTTCTGTTCAAGCGCCATCTAC,0.977 RPM ratio (pull-down/input)
17,GATGATTGTTCTCCCAGCTGATGAATTGTGTTTATCGAGTAAACAAATTTTCCTAATCTTTCTGTTCAAGCGCCATCTAC,2.92 RPM ratio (pull-down/input)
18,GATGATTGTTCTCCCAGCTGATGAATTTAATCACTCGAGTAAACAAATTTTCCTAATCTTTCTGTTCAAGCGCCATCTAC,1.02 RPM ratio (pull-down/input)
19,GATGATTGTTCTCCCAGCTGATGAATTGGTAACTTCGAGTAAACAAATTTTCCTAATCTTTCTGTTCAAGCGCCATCTAC,0.983 RPM ratio (pull-down/input)
20,GATGATTGTTCTCCCAGCTGATGAATTCTTGGTATCGAGTAAACAAATTTTCCTAATCTTTCTGTTCAAGCGCCATCTAC,1 RPM ratio (pull-down/input)
21,GATGATTGTTCTCCCAGCTGATGAATTGGCAGGTTCGAGTAAACAAATTTTCCTAATCTTTCTGTTCAAGCGCCATCTAC,0.781 RPM ratio (pull-down/input)
